Test results reported in article PMC4612729.
No constants are given. Whether binding was seen depends on the method and setting. Binding seen in cells or lysates may run through a third protein. Some results given as binding are weak or reduced against the parent protein; the word gives no strength.

Protein sequences, listed by entry. Tags and fused reporters are not part of them. Lines headed by an entry give the natural chain unless they say otherwise; changes in a name come on top. Chains listed by the source or under a name are the forms on record and can include a tag or linker.
UniProt P11802: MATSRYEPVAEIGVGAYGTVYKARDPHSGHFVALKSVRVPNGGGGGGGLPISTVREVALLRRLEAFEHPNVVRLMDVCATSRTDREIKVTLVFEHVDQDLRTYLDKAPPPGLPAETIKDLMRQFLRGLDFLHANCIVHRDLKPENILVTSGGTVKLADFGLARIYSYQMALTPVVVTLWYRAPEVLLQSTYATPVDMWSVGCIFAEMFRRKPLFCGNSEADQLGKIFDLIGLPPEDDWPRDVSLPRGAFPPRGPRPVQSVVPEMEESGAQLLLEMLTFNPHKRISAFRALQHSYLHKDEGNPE
UniProt P17302: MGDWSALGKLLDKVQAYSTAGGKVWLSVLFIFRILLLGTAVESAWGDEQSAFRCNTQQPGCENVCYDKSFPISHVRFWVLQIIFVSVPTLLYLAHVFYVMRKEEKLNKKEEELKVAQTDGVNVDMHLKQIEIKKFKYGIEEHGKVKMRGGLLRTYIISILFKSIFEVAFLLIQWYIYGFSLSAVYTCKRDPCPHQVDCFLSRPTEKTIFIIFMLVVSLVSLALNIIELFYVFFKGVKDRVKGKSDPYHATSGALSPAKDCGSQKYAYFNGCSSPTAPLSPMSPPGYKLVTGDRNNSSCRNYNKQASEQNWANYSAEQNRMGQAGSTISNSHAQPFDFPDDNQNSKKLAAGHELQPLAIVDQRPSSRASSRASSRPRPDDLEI
UniProt P46527: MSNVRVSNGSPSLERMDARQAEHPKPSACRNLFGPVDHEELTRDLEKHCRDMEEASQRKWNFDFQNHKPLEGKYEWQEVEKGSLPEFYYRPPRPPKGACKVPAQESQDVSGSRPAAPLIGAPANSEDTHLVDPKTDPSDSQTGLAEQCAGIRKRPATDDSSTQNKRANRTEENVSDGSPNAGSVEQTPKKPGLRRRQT
UniProt P11142: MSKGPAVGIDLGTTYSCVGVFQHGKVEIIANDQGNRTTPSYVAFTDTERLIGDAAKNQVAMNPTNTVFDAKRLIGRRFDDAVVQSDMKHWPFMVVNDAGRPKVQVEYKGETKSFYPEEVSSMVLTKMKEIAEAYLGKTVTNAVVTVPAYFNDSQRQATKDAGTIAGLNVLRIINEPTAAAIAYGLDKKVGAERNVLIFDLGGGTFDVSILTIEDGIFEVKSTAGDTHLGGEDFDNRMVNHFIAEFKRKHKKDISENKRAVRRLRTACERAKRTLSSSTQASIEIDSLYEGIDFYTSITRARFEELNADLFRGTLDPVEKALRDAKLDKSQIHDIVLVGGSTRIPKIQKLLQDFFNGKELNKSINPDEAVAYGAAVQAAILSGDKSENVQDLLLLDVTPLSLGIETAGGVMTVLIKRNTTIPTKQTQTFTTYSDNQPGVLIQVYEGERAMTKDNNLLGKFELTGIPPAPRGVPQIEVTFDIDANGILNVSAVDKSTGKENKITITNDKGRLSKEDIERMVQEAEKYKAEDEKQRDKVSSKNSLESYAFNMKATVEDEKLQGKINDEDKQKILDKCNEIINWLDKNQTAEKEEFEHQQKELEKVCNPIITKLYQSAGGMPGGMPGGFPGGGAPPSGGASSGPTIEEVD
Hsc70 Δ385–543 mutant, T7-tagged (P11142, form named): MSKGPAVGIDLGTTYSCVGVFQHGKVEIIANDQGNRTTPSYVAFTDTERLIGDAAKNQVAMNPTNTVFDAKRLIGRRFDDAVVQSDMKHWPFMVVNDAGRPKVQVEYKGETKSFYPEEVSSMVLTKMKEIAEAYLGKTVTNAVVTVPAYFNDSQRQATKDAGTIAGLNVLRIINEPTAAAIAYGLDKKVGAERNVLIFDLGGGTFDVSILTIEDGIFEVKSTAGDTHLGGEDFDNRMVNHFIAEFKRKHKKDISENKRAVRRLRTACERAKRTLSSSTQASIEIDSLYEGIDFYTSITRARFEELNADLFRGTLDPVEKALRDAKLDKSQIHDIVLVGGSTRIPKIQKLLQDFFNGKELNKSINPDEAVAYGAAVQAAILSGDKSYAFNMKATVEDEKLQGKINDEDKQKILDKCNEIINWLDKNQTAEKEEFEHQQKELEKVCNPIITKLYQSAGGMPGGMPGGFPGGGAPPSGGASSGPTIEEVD
UniProt P24385: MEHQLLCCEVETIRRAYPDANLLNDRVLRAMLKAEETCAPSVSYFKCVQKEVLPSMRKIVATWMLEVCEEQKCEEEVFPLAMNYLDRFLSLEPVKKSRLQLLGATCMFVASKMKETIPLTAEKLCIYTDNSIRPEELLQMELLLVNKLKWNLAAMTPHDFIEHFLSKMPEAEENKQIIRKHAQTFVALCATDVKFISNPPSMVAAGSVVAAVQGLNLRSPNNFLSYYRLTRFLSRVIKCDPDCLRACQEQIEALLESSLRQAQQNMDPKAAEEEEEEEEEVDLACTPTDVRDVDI

Assays:
[1] = target: CDK4, FLAG-tagged (human) (UniProt P11802); test: co-IP; HuH-7 cells transfected with equivalent plasmids of HA-p27, cMyc-cyclin D1 and FLAG-CDK4, with or without T7-Hsc70, with or without Cx43, with or without siRNA of Hsc70; lysates immunoprecipitated by anti-FLAG-tag antibody or control IgG; western blot with anti-FLAG, anti-HA, anti-cMyc and anti-T7 tag antibodies
[2] = target: Connexin 43 (Cx43), wild type (UniProt P17302); test: co-IP; lysates of HuH-7 cells co-transfected with two plasmids, 48 hr after transfection; immunoprecipitated by anti-Cx43 (Fig. 3a, 3c) or anti-T7-tag (Fig. 3b) antibody or control IgG; western blot with anti-T7 or anti-HA antibody
[3] = target: Connexin 43 (Cx43), wild type (UniProt P17302); test: co-IP; whole lysates of HuH-7 cells transfected with Cx43 or HA-p27 and various forms of T7-Hsc70 (wild type and deletion mutants); western blot with anti-T7-tag and anti-Cx43 or anti-HA-tag antibodies; precipitating antibody not named in the legend

Substance	binding [1]	binding [2]	binding [3]
CDK inhibitor p27, HA-tagged (from UniProt P46527 1-198)	binds	no binding	–
Hsc70 Δ385–543 mutant, T7-tagged (from UniProt P11142 1-646)	–	–	no binding
Hsc70 Δ543–646 mutant, T7-tagged (from UniProt P11142 1-542) (domain or fragment)	–	–	binds
cyclin D1, cMyc-tagged (from UniProt P24385 1-295)	binds	–	–

Continued, values first:

binding [1]	binding [2]	binding [3]	Substance
–	–	binds	Hsc70 Δ1–385 mutant, T7-tagged (from UniProt P11142 386-646) (domain or fragment)
binds	binds	binds	heat shock cognate protein 70 (Hsc70), wild type, T7-tagged (from UniProt P11142 1-646)
